Hit rate of the full screen: of about 39,000 compounds, about 220 (0.56%) showed activity. The list shows a part of the results.
The compounds below were run on Escherichia coli K-12 BW25113 (assay: relative growth (OD600 normalised to plate interquartile mean) (fraction); higher = less growth inhibition, active = 0.2 or less). Details: 50 µM; LB; incubation time: overnight (16-24 h).
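Note: static incubation at 37 °C against the wild-type strain, values averaged over two biological replicates.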

SMILES | relative growth
O=C(COc1ccccc1)Nc1nnc[nH]1 | inactive: 0.94
CC(C)(C)[S@](=O)N1Cc2cc(C(=O)N3CCCCC3)nc(-c3cccc(-c4cccc(C#N)c4)c3)c2[C@@H]1CCO | inactive: 0.993
C[C@@H]1CN([C@@H](C)CO)C(=O)c2cc(NC(=O)NC3CCCCC3)ccc2O[C@H]1CN(C)Cc1ccc(Oc2ccccc2)cc1 | inactive: 1.02
C[C@H](CO)N1C[C@H](C)[C@H](CN(C)CC2CC2)Oc2ccc(NS(=O)(=O)c3ccccc3)cc2C1=O | inactive: 1.02
COc1ccc(NC(=O)Nc2ccc3c(c2)[C@@H]2C[C@@H](CC(=O)N4CCN(C)CC4)O[C@H](CO)[C@@H]2O3)cc1 | inactive: 1.02
C[C@@H]1CN([C@H](C)CO)S(=O)(=O)c2ccc(Br)cc2O[C@@H]1CN(C)S(=O)(=O)c1ccccc1 | inactive: 1
C[C@H]1CN([C@@H](C)CO)C(=O)c2cccc(NC(=O)c3ccncc3)c2O[C@H]1CN(C)S(=O)(=O)c1cccs1 | inactive: 1
COc1ccc2c3c([nH]c2c1)[C@@H](CO)N(C[C@]13CCN(CC1)S(=O)(=O)c1cn(cn1)C)C(=O)Nc1ccc(cc1)F | inactive: 0.975
COc1ccc2c3c(n(c2c1)C)[C@H](CO)N(CC1CCCCC1)C[C@]13CCN(CC1)Cc1nccs1 | inactive: 1.01
C[C@@H]1CCCCO[C@H](CN(C)S(=O)(=O)c2ccc(F)cc2)[C@H](C)CN([C@@H](C)CO)C(=O)c2cc(NC(=O)Cc3ccccc3)ccc2O1 | inactive: 0.99
C[C@@H]1CCCCO[C@@H](CN(C)C(=O)NC2CCCCC2)[C@@H](C)CN([C@@H](C)CO)C(=O)c2cc(NC(=O)c3ccccc3)ccc2O1 | inactive: 1.01
COc1ccc([C@H]([C@H](Cc2ccccc2)OC(C)=O)N(C[C@H](/C=C/c2ccccc2)OC(C)=O)[C@@H](Cc2ccccc2)C(OC)OC)cc1 | inactive: 1.04
CO[C@@H]1CN(C)C(=O)c2cc(NC(=O)Nc3cccc(F)c3)ccc2OC[C@@H](C)N(C(=O)Nc2cccc(F)c2)C[C@H]1C | inactive: 1.03
C[C@H]1CN([C@@H](C)CO)C(=O)c2cccc(NS(=O)(=O)c3cn(C)cn3)c2O[C@@H]1CN(C)Cc1ccccc1 | inactive: 0.933
Cc1ccc(S(=O)(=O)N(C)C[C@@H]2Oc3ccc(NC(=O)NC(C)C)cc3C(=O)N([C@H](C)CO)C[C@H]2C)cc1 | inactive: 0.986
O=C(CCCCCNC(=O)OC[C@H]1C(=O)O[C@@H](Cc2ccccc2)[C@H]2[C@H]3C(=CC(=O)[C@@H]3C3CC3)CN21)NO | inactive: 0.977
C[C@@H]1CCCCO[C@@H](CN(C)S(=O)(=O)c2cccs2)[C@H](C)CN([C@H](C)CO)C(=O)c2cc(NC(=O)c3ccccc3)ccc2O1 | inactive: 1.01
NC(=O)NCC#Cc1ccc2c(c1)[C@]1(C(=O)N2)[C@H](c2ccccc2OCCO)N2[C@H](c3ccccc3)[C@H](c3ccccc3)OC(=O)[C@H]2[C@@H]1C(=O)N1CCN(c2ncccn2)CC1 | inactive: 1.03
CC(C)N1CC=C[C@@]23O[C@@H]4C=CCCOC(=O)[C@@H]4[C@H]2C(=O)N(CCCO)[C@@H]3C1=O | inactive: 1
CC(C)[Si]1(C(C)C)OCc2cc(-c3ccc(-c4ccc(Cl)c(Cl)c4)o3)nc(CCc3ccccc3)c21 | inactive: 0.95

SMILES | relative growth
C[C@H](CO)N1C[C@H](C)[C@@H](CN(C)C(=O)c2ccncc2)Oc2ncc(-c3ccc(C(=O)N(C)C)cc3)cc2C1=O | inactive: 1.02
CC1(C)C(=O)NCCN1C(=O)Cc1ccccc1 | inactive: 1
C[C@H](CO)N1C[C@H](C)[C@H](CN(C)C(=O)CCC(F)(F)F)OCCCC[C@H](C)Oc2ccc(NC(=O)c3ccccc3)cc2C1=O | inactive: 1.04
CC(C)C#Cc1ccc2c(c1)O[C@@H](CN(C)C(=O)c1cnccn1)[C@H](C)CN([C@@H](C)CO)S2(=O)=O | inactive: 0.993
CC(C)NC(=O)N1Cc2cc(C(=O)NCC(F)(F)F)nc(-c3cccc(-c4cc5ccccc5o4)c3)c2[C@H]1CCO | inactive: 1.09
COc1ccc(S(=O)(=O)Nc2ccc3c(c2)CC(=O)N([C@@H](C)CO)C[C@H](C)[C@@H](CN(C)S(=O)(=O)c2ccc(F)cc2)O3)cc1 | inactive: 1
Cc1cc(C(=O)Nc2cccc3c2O[C@@H](CN(C)S(C)(=O)=O)[C@@H](C)CN([C@H](C)CO)C3=O)n(C)n1 | inactive: 1
C[C@@H]1CN([C@H](C)CO)C(=O)c2cc(NC(=O)Nc3ccc(F)cc3)ccc2O[C@@H]1CN(C)C(=O)Nc1cccc2ccccc12 | inactive: 0.98
COc1cccc(S(=O)(=O)N(C)C[C@H]2OCc3cnnn3CCCC(=O)N([C@@H](C)CO)C[C@@H]2C)c1 | inactive: 1
CS(=O)(=O)N1C[C@@H]2COC[C@@]2(CN2CCOCC2)C1 | inactive: 0.99
N[C@H](CCC(=O)O)C(=O)O | inactive: 1.03
COc1ccc(C#Cc2cccc(-c3nc(C(=O)N[C@@H]4CCN(Cc5ccccc5)C4)cc4c3[C@@H](CCO)N(S(=O)C(C)(C)C)C4)c2)cc1OC (some centres undefined) | inactive: 1.01
Cc1ccc(S(=O)(=O)N(C)C[C@H]2Oc3cc(C#Cc4ccccc4)ccc3S(=O)(=O)N([C@H](C)CO)C[C@H]2C)cc1 | inactive: 1.05
C[C@@H]1CN([C@@H](C)CO)C(=O)c2cc(NC(=O)Nc3ccc(F)cc3)ccc2O[C@@H](C)CCCCO[C@@H]1CN(C)C(=O)CCCN(C)C | inactive: 0.989
C[C@H](CO)N1C[C@H](C)[C@H](CN(C)S(=O)(=O)c2ccc(Cl)cc2)Oc2ccc(N(C)C)cc2CC1=O | inactive: 1.01
Cc1cn([C@H]2O[C@@H](CO)[C@H](O)[C@H]2F)c(=O)[nH]c1=O | inactive: 0.988
C[C@H]1CN([C@@H](C)CO)S(=O)(=O)c2ccc(-c3ccncc3)cc2O[C@@H]1CN(C)S(=O)(=O)c1ccccc1F | inactive: 1.01
COc1ccc(CN(C)C[C@H]2OCCCC[C@H](C)Oc3ccc(NC(=O)Cc4ccccc4)cc3C(=O)N([C@@H](C)CO)C[C@H]2C)cc1 | inactive: 1.01
C[C@H]1CN([C@@H](C)CO)C(=O)c2cc(NC(=O)CCC(F)(F)F)ccc2O[C@@H]1CN(C)Cc1ccc(-c2ccccc2)cc1 | inactive: 0.965
Nc1nc(=O)c2c(CCc3ccc(C(=O)NC(CCC(=O)[O-])C(=O)[O-])cc3)c[nH]c2[nH]1.[Na+].[Na+] (centres undefined) | inactive: 1.13

SMILES | relative growth
C[C@H]1CN([C@@H](C)CO)C(=O)c2cccc(NC(=O)C3CCOCC3)c2O[C@H]1CN(C)S(=O)(=O)c1ccccc1 | inactive: 0.978
C[C@@H]1CN([C@@H](C)CO)C(=O)c2ccccc2-c2ccccc2CO[C@H]1CN(C)C(=O)Nc1ccc(F)cc1 | inactive: 1.01
COc1ccc(S(=O)(=O)N(C)C[C@H]2OCCCC[C@@H](C)Oc3ccc(NS(=O)(=O)c4ccc(Cl)cc4)cc3C(=O)N([C@H](C)CO)C[C@@H]2C)cc1 | inactive: 1.01
COc1ccc(S(=O)(=O)Nc2ccc3c(c2)C(=O)N([C@H](C)CO)C[C@@H](C)[C@@H](CN(C)CC2CC2)O3)cc1 | inactive: 0.979
Cn1c(=O)n2n(c1=O)[C@H](C1CC1)C=C1CN3[C@@H]([C@H](CCn4cc(-c5ccc(C(=O)NO)cc5)nn4)OC(=O)[C@@H]3Cc3ccccc3)[C@@H]12 | inactive: 1.02
C[C@@H]1CN([C@@H](C)CO)C(=O)Cc2cc(NC(=O)Nc3ccccc3)ccc2O[C@H]1CN(C)Cc1ccc(Oc2ccccc2)cc1 | inactive: 1.03
C[C@H](CO)N1C[C@H](C)[C@H](CN(C)C(=O)Nc2ccc3c(c2)OCO3)OCCCC[C@H](C)Oc2ccc(NC(=O)Nc3cccc4ccccc34)cc2C1=O | inactive: 1.05
CC(=O)OCC(=O)C1(O)CCC2C3CCC4=CC(=O)C=CC4(C)C3C(O)CC21C (centres undefined) | inactive: 1.02
Cc1ccc(S(=O)(=O)N(C)C[C@H]2Oc3ccc(NC(=O)CCCN(C)C)cc3CC(=O)N([C@@H](C)CO)C[C@@H]2C)cc1 | inactive: 1
C[C@H]1CN([C@@H](C)CO)C(=O)c2c(c3ccccc3n2C)-c2ccccc2CO[C@@H]1CN(C)S(C)(=O)=O | inactive: 1.02
O=C(C[C@H]1CC[C@H]2[C@@H](COC[C@H](O)CN2C(=O)c2ccc3c(c2)OCO3)O1)NCCN1CCCC1 | inactive: 1.01
C[C@@H]1CN([C@H](C)CO)C(=O)c2cc(NC(=O)C3CCCCC3)ccc2O[C@@H](C)CCCCO[C@H]1CN(C)C(=O)Nc1cccc2ccccc12 | inactive: 1.01
Cc1ccc(S(=O)(=O)Nc2ccc3c(c2)C(=O)N([C@@H](C)CO)C[C@H](C)[C@@H](CN(C)C(=O)NC2CCCCC2)OCCCC[C@H](C)O3)cc1 | inactive: 1
Cc1noc(C)c1S(=O)(=O)N(C)C[C@@H]1Oc2ccc(NS(C)(=O)=O)cc2C(=O)N([C@@H](C)CO)C[C@@H]1C | inactive: 0.999
C=c1[nH]/c(=C\c2ccc(F)cc2)c(=O)o1 | inactive: 1.03
CCNC(=O)C[C@H]1CC[C@H](NC(=O)C2CCOCC2)[C@@H](CO)O1 | inactive: 0.995
COCCNC(=O)C[C@H]1C[C@@H]2c3cc(NC(=O)CN(C)C)ccc3O[C@@H]2[C@H](CO)O1 | inactive: 1.03
C[C@@H]1CCCCO[C@@H](CN(C)C(=O)NC2CCCCC2)[C@H](C)CN([C@H](C)CO)C(=O)c2cc(NC(=O)c3ccccc3)ccc2O1 | inactive: 0.972
CN1CCN(C(=O)C[C@H]2CC[C@H]3[C@H](COc4ccc(NC(=O)C5CCOCC5)cc4C(=O)N3C)O2)CC1 | inactive: 0.985

From the supplement of paper PMC9446081
